Source: PubChem BioAssay AID1963576 (National Center for Advancing Translational Sciences (NCATS), 2024)
About 60 (0.1%) of roughly 46,000 compounds were called active. About 3% were inconclusive and are not listed. Calls come from the whole dose curve; as a rule, active = well fitted inhibition curve with a large enough effect; inconclusive = small, poorly fitted or top-dose-only effect; inactive = no such curve, though single readings can be large or run the other way. The list shows a part of the results.

Assay: Primary qHTS assay for Inhibitors of ovarian cancer metastasis using an organotypic tumor microenvironment (TME) model.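 For activity change, negative = inhibition: plate controls were DMSO wells for no effect and tomatine positive control wells for full effect.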 Note: nearly all actives have a fitted effect of over 65% in size.
Conditions: SKOV3ip1-GFP adhesion/invasion on 3D omental model, fluorescence; series mostly up to 45.8 µM; activity change, negative = inhibition: at the top concentration
Procedure, shortened: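 Adhesion/invasion was scored as fixed GFP-labeled SKOV3ip1 cell counts (488/509 nm), normalized to DMSO and tomatine controls. Cancer cells in serum-free medium, with four compound doses (0.36-46 umol/L), sat 2 hr at RT then 16 hr at 37 C on a 48 hr fibroblast/mesothelial/ECM culture.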

Activity change, negative = inhibition, inactive:
CCCCCCCCOc1ccccc1C(=O)Nc1ccc(C(=O)OCC[N+](C)(CC)CC)cc1 -3.89%
COCCCNC(=O)C1CCN(c2nc3ccc(Cl)cc3[nH]2)CC1 2.39%
Cc1cccc(NC(=O)N2CC=C(c3c[nH]c4ccccc34)CC2)c1C 2.98%
O=C(c1cc2cc3ccc(Cl)cc3nc2o1)N1CCN(c2cccc(Cl)c2)CC1 68.1%
CCOc1ccc(OCC)c(NC(=O)c2cc(-c3cccs3)nc3ccccc23)c1 0.308%
CCOc1ccc2c(c1)c(=O)c(S(=O)(=O)c1ccc(CC)cc1)cn2Cc1cccc(Cl)c1 -0.112%
CN1CCN2c3ccccc3Cc3ccccc3C2C1 (stereo not given) 2.07%
CCCSc1ncnc2c1c(-c1ccccc1)cn2-c1ccccc1OC -3.7%
COc1ccc(-c2cn3nc(SCC(=O)Nc4cc(C)cc(C)c4)ccc3n2)cc1 -0.857%
CCc1cccc(C)c1NC(=O)Cn1ncc2c3ccccc3n(Cc3ccccc3)c2c1=O 1.71%
O=c1c(N2CCN(c3cccc(Cl)c3)CC2)csc2ccc(Cl)cc12 -1.04%
O=C1CCSc2ccc(S(=O)(=O)Nc3cccc(C(F)(F)F)c3)cc2N1 6.7%
O=c1c2sccc2n(Cc2cc(=O)n3cc(Cl)ccc3n2)c(=O)n1-c1ccccc1 -4.46%
CCOC(=O)c1[nH]c(C)c(CCC(=O)Nc2cc(Cl)c(OC)cc2OC)c1C -8.18%
Cc1cc(C)c(NC(=O)Cn2c(=O)n(CC(=O)NCCc3ccccc3)c(=O)c3ccccc32)c(C)c1 4.75%
O=C(NC1CCCCCC1)c1ccc(CS(=O)c2cccc(Cl)c2)o1 (stereo not given) -6.95%
O=C(CSc1nc2ccccc2n1Cc1cccc(F)c1)N1CCN(c2ccc(F)cc2)CC1 -25.6%
O=C(NCc1ccccc1Cl)c1ccc2c(c1)N(Cc1ccccc1)CCS2 -17.1%
Cc1ccc(CCNC(=O)c2ccc3c(c2)N(Cc2ccc(F)cc2)CCS3)cc1 5.68%
Cc1nc(-c2ccc(C)c(S(=O)(=O)N3CCC(C(=O)NCc4ccc(F)cc4)CC3)c2)no1 24.8%
CC(=O)c1cccc(N2C(=O)CN(S(C)(=O)=O)CC2(C)C(=O)NC2CCCC2)c1 (stereo not given) 9.53%
N[C@@H](Cc1ccc(O)c(O)c1)C(=O)O 0.186%
CCc1ccc(NC(=O)Cn2c(=O)n(CCc3ccccc3)c(=O)c3sc4ccccc4c32)cc1 8.31%
COc1ccc(S(=O)(=O)N(CCc2ccccc2)CC(=O)Nc2cc(C)cc(C)c2)cc1OC 0.163%
Cc1cccc(-n2nnc(-c3nc(-c4cccs4)no3)c2N)c1 0.177%
Cc1cc(N2CCC(C)CC2)nc2ccc(NC(=O)CCC(=O)N3CCN(c4ccccc4F)CC3)cc12 -3.46%
Cc1ccc(N(C)C(=O)C2CCN(S(=O)(=O)c3cn(C)cn3)CC2)cc1 -3.73%
CCn1c(=O)c2sccc2n2c(CCC(=O)Nc3ccc(C(C)C)cc3)nnc12 -6.01%
Cc1ccc(C)c(NS(=O)(=O)c2ccc3oc(=O)c4ncn(C)c4c3c2)c1 2.82%
CC1CCN(CCCNC(=O)CN2C(=O)CSc3ccc(S(=O)(=O)N4CCOCC4)cc32)CC1 4.2%
COc1cc(C2c3c(oc4ccccc4c3=O)C(=O)N2Cc2ccc(C)cc2)ccc1O (stereo not given) -3.88%
COc1ccc(OCC(=O)NC(Cc2c[nH]c3ccccc23)C(=O)O)cc1 (stereo not given) 14.9%
CN(C)CCc1c[nH]c2ccc(CS(=O)(=O)N3CCCC3)cc12 -16.9%
COc1ccc(NC(=O)c2cc3c(=O)n(Cc4cccnc4)ccc3nc2C)c(OC)c1 0.177%
Cc1cccc(CN2C(=O)c3ccccc3S(=O)(=O)c3ccc(C(=O)NC4CCCCC4)cc32)c1 3.89%
CC(NC(=O)CSc1nc(-c2ccccc2F)nc2cc(=O)[nH]n12)c1nc2ccccc2n1C (stereo not given) -5.07%
Cc1ccc(CNC(=O)Cn2ccn(-c3ccc(F)cc3)c(=O)c2=O)cc1 3.9%
O=C(Nc1ccc(N2CCOCC2)c(C(=O)O)c1)c1ccc(Br)cc1 -13.5%
Cc1ccc2nc3c(cc(C(=O)NCc4ccco4)c(=N)n3C(C)C)c(=O)n2c1 -7.81%
CC(=O)c1cccc(NC(=O)Cn2cc(C(=O)c3cccc(Cl)c3)c(=O)c3ccc(C)nc32)c1 -2.12%
CCC(=O)N1CCCc2cc(S(=O)(=O)N3CCC(C(=O)Nc4ccc(C#N)cc4)CC3)ccc21 2.06%
Cc1cccc2c(=O)cc(CSc3ccccc3NC(=O)C(C)(C)C)[nH]c12 -0.148%
CCCC(=O)Nc1ccccc1C(=O)OCc1cc(=O)n2nc(C(C)C)sc2n1 -5.98%
COc1ccc(OCc2ccc(-c3nc(C#N)c(NCc4cccnc4)o3)o2)cc1 -4.5%
CCOC(=O)c1cc(S(=O)(=O)NCc2ccc(OC)cc2)[nH]n1 5.05%
Cc1cc(C)cc(NC(=O)N2CCN(C(=O)c3nsc4ccccc34)CC2)c1 -5.99%

outcome, inactive:
CCN(CC)C(=O)C1CCCN(c2ncnc3c2c(-c2ccccc2)cn3-c2cccc(C)c2)C1 (stereo not given)
O=C(CN1C(=O)CSc2ccc(S(=O)(=O)N3CCCC3)cc21)NCc1ccc(F)cc1Cl
O=c1c2nncn2ccn1-c1ccc(F)c(F)c1
CCCCOC(=O)c1ccc(Nc2nc3ccc(C(=O)c4ccccc4)cc3n3cnnc23)cc1
COc1ccc(CNC(=O)c2ccc(CS(=O)(=O)c3ccc(Br)cc3)o2)cc1
Cc1ccc(Cl)cc1Nc1nn2c(=O)c3ccc(C(=O)NC4CCCCC4)cc3nc2s1
COc1ccc(OC)c(NC(=O)CS(=O)(=O)Cc2nc(-c3ccc(C)cc3)oc2C)c1
CCC(C)NC(=O)c1cn(CC)c2ccc(S(=O)(=O)N3CCc4ccccc4C3)cc2c1=O (stereo not given)
COc1ccccc1N1CCN(S(=O)(=O)CCNC(=O)C(c2ccccc2)c2ccccc2)CC1
Cc1ccc(C)c(CNC(=O)CN2C(=O)CSc3ccc(S(=O)(=O)N(C)C)cc32)c1
CCn1c(=O)c2cc(C(=O)NCCc3ccc(Cl)cc3)sc2c2ccccc21
CCc1nnc(SC(CC)C(=O)Nc2cc(C)ccc2C)c2cc3occc3n12 (stereo not given)
Cc1ccc(NC(=O)c2c(C)oc3ncn(CC(C)C)c(=O)c23)nc1
COC(=O)c1ccc(-n2c(/C=C/c3cc(OC)c(OC)c(OC)c3)nc3cc(Cl)ccc3c2=O)cc1
